Experimental data published in the supplement of paper PMC12217912.
Some of the results follow. The full chains were built here from the parent and the listed change. Values near 0.05 are background.

B1: TEV protease; numbered along this chain (parent)
chain: MGESLFKGPRDYNPISSSICHLTNESDGHTTSLYGIGFGPFIITNKHLFRRNNGTLVVQSLHGVFKVKDTTTLQQHLVDGRDMIIIRMPKDFPPFPQKLKFREPQREERICLVTTNFQTKSMSSMVSDTSCTFPSGDGIFWKHWIQTKDGQCGSPLVSTRDGFIVGIHSASNFTNTNNYFTSVPKNFMELLTNQEAQQWVSGWRLNADSVLWGGHKVFMVKPEEPFQPVKEATQL

Variants of: B1
Test: raw area under fraction-flipped curve 0-4 h after induction (AUC4h, not background-subtracted), DNA-recorder readout of cleavage of the substrate (dimensionless); higher = more cleavage of the substrate by the protease variant
Details: temperature: 34 °C; time window: 0-4 h after rhamnose induction
Method: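 In vivo DNA recorder in E. coli TOP10(DE3) ΔrhaA at 34 °C. Each TEVp single-site mutant (parent TEVp 0) is paired with a single-site variant of the 7-mer TEVs (canonical ENLYFQ|S). The substrate sits between flexible linkers in a Bxb1-sfGFP-TEVs-SsrA fusion, so cleavage stabilises Bxb1 and speeds flipping of a recombination array, read by NGS. The value is the raw area under the fraction-flipped curve over 0-4 h after rhamnose induction (AUC4h), with ≥20 reads per time point. It is not background-subtracted; inactive controls average about 0.047.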
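Further: Bxb1 expression induced with 0.2% (w/v) L-rhamnose at OD600 near 0.5, cultures sampled hourly, flipped fraction per protease–substrate barcode pair counted by paired-end Illumina sequencing.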

Variant | area with substrate CNLYFQS | area with substrate DNLYFQS | area with substrate FNLYFQS | area with substrate GNLYFQS | area with substrate HNLYFQS | area with substrate LNLYFQS | area with substrate MNLYFQS | area with substrate NNLYFQS | area with substrate PNLYFQS | area with substrate SNLYFQS | area with substrate TNLYFQS | area with substrate VNLYFQS | area with substrate WNLYFQS | area with substrate YNLYFQS | area with substrate INLYFQS | area with substrate KNLYFQS | area with substrate QNLYFQS | area with substrate RNLYFQS
S124V | 0.0704 | 0.0935 | 0.0605 | 0.0596 | 0.054 | 0.0666 | 0.0591 | 0.0687 | 0.0696 | 0.0656 | 0.0655 | 0.0591 | 0.0494 | 0.0535 | – | – | – | –
V126A | 0.0639 | 0.057 | 0.0654 | – | 0.0627 | 0.0639 | 0.0618 | 0.0541 | 0.0841 | 0.0757 | 0.0529 | 0.0731 | 0.0545 | 0.0636 | 0.0597 | 0.0537 | 0.0709 | –
V126Y | 0.0751 | 0.0957 | – | 0.0719 | 0.0687 | – | – | 0.0713 | 0.07 | 0.0771 | 0.0499 | – | 0.064 | – | 0.0589 | 0.0549 | – | –
S127E | 0.0656 | 0.0839 | – | 0.0657 | 0.0625 | 0.0742 | – | – | 0.0656 | – | 0.0669 | 0.0641 | 0.0636 | 0.0571 | 0.0608 | 0.0664 | 0.067 | –
S127G | 0.0727 | 0.0808 | 0.0651 | – | 0.0679 | – | – | 0.077 | 0.0653 | – | 0.0683 | – | – | 0.0641 | 0.062 | 0.0749 | 0.0712 | 0.0608
S127K | 0.0622 | 0.099 | 0.0674 | – | – | 0.0554 | – | – | – | 0.0738 | 0.0697 | – | 0.0484 | 0.0748 | – | – | – | –
S130Y | 0.0682 | 0.0876 | – | 0.104 | 0.061 | 0.0612 | 0.0832 | – | 0.0606 | – | 0.075 | 0.0421 | 0.0593 | – | 0.054 | 0.0819 | 0.0509 | 0.0479
T132A | 0.0629 | 0.06 | – | – | 0.0557 | 0.0608 | 0.0657 | 0.0631 | – | 0.0531 | 0.0596 | 0.0476 | 0.0578 | 0.0698 | 0.0691 | 0.0786 | 0.0524 | –
T132I | 0.0682 | 0.0851 | 0.055 | 0.065 | 0.0742 | 0.046 | 0.059 | – | 0.066 | – | 0.0737 | – | – | 0.0622 | 0.0802 | 0.0597 | – | –
F133K | 0.0783 | 0.0881 | – | 0.0864 | 0.0619 | 0.0675 | 0.0587 | 0.0687 | – | – | – | – | – | 0.0436 | – | – | – | –
F133W | 0.0603 | 0.0919 | 0.0702 | 0.093 | 0.0648 | 0.0703 | – | 0.0695 | 0.0739 | – | 0.0645 | 0.0384 | 0.0605 | 0.0601 | 0.0619 | 0.0615 | 0.0615 | –
P134D | 0.0585 | 0.073 | 0.0642 | 0.0631 | 0.0477 | 0.0647 | 0.0572 | 0.0605 | 0.052 | 0.0625 | 0.0611 | 0.0641 | 0.0628 | 0.0611 | 0.0606 | 0.0655 | – | –
P134G | 0.0555 | 0.0656 | – | 0.052 | 0.0521 | 0.0611 | 0.0445 | 0.075 | 0.0638 | 0.0472 | 0.055 | 0.0512 | 0.0569 | 0.0565 | – | 0.06 | – | –
S135R | 0.0562 | 0.0562 | 0.0524 | 0.0468 | 0.0658 | 0.0615 | – | 0.0588 | 0.0532 | 0.0755 | 0.0642 | 0.0615 | 0.0604 | 0.0643 | 0.0692 | 0.0613 | – | –
F140G | 0.0721 | 0.0555 | 0.0664 | – | 0.0585 | 0.0595 | – | – | 0.0736 | 0.121 | 0.0749 | – | 0.0428 | 0.0604 | 0.0541 | 0.0588 | 0.0428 | –
W141A | 0.0523 | 0.0615 | 0.0521 | 0.0552 | 0.0517 | – | 0.0723 | – | 0.0482 | 0.0363 | 0.0562 | 0.0573 | 0.0584 | 0.0499 | – | – | 0.0518 | –
W141I | 0.0748 | 0.0621 | – | – | 0.0729 | 0.0578 | 0.0483 | – | 0.0523 | 0.0717 | 0.0574 | 0.0615 | 0.0466 | – | – | 0.0471 | – | –
W141P | 0.0455 | 0.0448 | 0.0479 | – | 0.0491 | 0.072 | – | – | 0.0506 | – | 0.059 | 0.0359 | 0.0531 | 0.0525 | – | 0.0736 | – | 0.0448
K142I | 0.0758 | 0.0764 | 0.0736 | 0.0662 | 0.0737 | – | – | 0.0689 | 0.0589 | 0.0675 | 0.0666 | – | 0.0735 | 0.0608 | – | – | 0.101 | –
K142L | 0.0784 | 0.117 | 0.0777 | 0.0721 | 0.073 | 0.0869 | 0.0692 | 0.0748 | 0.0665 | 0.0695 | 0.0547 | – | 0.0583 | – | 0.0729 | – | – | –
I145K | 0.049 | 0.117 | – | – | 0.0543 | 0.0615 | 0.0529 | – | 0.0451 | – | 0.0622 | 0.0575 | 0.0354 | 0.0641 | – | – | – | –
Q146C | 0.106 | 0.0832 | – | 0.09 | 0.0577 | 0.0194 | 0.0771 | – | 0.0774 | 0.0664 | 0.0679 | – | 0.0646 | 0.0654 | – | – | – | 0.105
Q146K | 0.0677 | 0.069 | 0.0688 | 0.0719 | 0.0694 | 0.0518 | 0.0606 | – | 0.0688 | 0.0614 | 0.0819 | 0.0646 | 0.0534 | 0.0624 | 0.0686 | 0.0694 | 0.0671 | 0.0658
Q146M | 0.0786 | 0.107 | 0.0471 | 0.106 | 0.0931 | 0.0755 | – | – | 0.0801 | 0.0683 | 0.0565 | 0.121 | 0.0628 | – | 0.0906 | 0.0775 | – | –
Q146T | 0.117 | 0.0793 | 0.0496 | 0.0704 | 0.0567 | – | 0.038 | – | 0.0632 | 0.067 | 0.0653 | 0.0474 | 0.0536 | 0.0667 | 0.0736 | – | – | –
T147Q | 0.0618 | 0.0563 | 0.0648 | – | 0.0648 | 0.059 | 0.0605 | – | 0.0572 | – | 0.07 | – | 0.076 | – | – | 0.0685 | – | –
K148E | 0.0681 | 0.0804 | – | – | 0.0641 | 0.0642 | 0.0684 | 0.0662 | 0.0611 | 0.0653 | 0.0623 | 0.0723 | 0.0532 | 0.0683 | 0.0653 | – | 0.0597 | –
